In PubChem BioAssay AID504339 (National Center for Advancing Translational Sciences (NCATS), 2011):
About 17,000 (4.4%) of roughly 390,000 compounds were called active. Inconclusive results, whose numbers are uncertain, are shown with a selection of clear calls. Calls follow the shape of the dose curve; as a rule, active = well fitted inhibition curve with a large enough effect; inconclusive = small, poorly fitted or top-dose-only effect; inactive = no such curve, though single readings can be large or run the other way. Potencies beside an inconclusive call are fits to weak or partial responses and may not hold up.

Target: Lysine-specific demethylase 4A (Homo sapiens) (UniProt O75164)
Experiment: qHTS Assay for Inhibitors of JMJD2A-Tudor Domain; also: nearly all actives have a fitted effect of over 50% in size
Details: AlphaScreen JMJD2A-Tudor / H3K4me3 peptide binding; activity change, negative = inhibition: at 114 µM (top of the series)
% is scaled to controls: 0 for no effect and ±100 for the full control effect; potency is read from the fitted curve at half-maximal effect; tags tell the direction and shape of the fitted curve.

Chain of UniProt O75164 (O75164 whole entry, looked up, the tested form may be a part): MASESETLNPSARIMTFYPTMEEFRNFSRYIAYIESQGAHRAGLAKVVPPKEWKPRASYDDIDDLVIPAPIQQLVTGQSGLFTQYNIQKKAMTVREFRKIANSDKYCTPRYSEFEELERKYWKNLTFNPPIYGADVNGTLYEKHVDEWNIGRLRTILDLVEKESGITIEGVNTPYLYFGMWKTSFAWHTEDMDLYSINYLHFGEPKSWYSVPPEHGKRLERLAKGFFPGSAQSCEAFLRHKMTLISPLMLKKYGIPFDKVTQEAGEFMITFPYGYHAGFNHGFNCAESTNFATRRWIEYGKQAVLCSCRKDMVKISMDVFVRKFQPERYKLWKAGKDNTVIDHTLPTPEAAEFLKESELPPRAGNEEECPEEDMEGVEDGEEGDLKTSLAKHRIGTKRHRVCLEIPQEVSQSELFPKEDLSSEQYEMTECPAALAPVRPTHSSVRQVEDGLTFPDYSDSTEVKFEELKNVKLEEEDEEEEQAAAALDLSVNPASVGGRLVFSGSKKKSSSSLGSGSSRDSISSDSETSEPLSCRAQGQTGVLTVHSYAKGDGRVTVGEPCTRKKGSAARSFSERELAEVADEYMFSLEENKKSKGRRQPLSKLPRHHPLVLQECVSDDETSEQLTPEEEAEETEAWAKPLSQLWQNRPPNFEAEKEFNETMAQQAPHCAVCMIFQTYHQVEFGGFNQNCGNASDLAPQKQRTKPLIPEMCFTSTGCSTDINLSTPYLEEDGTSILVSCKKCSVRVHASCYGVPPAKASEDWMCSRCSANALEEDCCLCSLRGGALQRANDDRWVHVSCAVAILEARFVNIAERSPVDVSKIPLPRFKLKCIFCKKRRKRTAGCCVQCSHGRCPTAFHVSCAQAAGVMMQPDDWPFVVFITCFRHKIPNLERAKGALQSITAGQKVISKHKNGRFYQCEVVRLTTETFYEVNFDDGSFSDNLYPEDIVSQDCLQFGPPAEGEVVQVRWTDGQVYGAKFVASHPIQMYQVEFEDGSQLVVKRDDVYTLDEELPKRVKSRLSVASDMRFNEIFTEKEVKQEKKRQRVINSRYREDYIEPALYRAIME

| SMILES | Potency | activity change, negative = inhibition |
| --- | --- | --- |
| CCc1ccccc1Nc1nc(N)nc(CSCC(=O)c2cc(C)n(C)c2C)n1 | inconclusive: 79.4 µM [inhibitor, partial curve] | – |
| O=C1NC(=S)/C(=C\c2ccc(-c3ccccc3Cl)o2)S1 | active: 44.7 µM | – |
| CCCCOC(=O)C1=C(C)NC(=O)NC1c1ccc([N+](=O)[O-])s1 (stereo not given) | inconclusive: 22.4 µM [inhibitor, single point] | – |
| Cn1c(/C=C/N(Cc2ccccc2)c2ccccc2)c([N+](=O)[O-])c(=O)n(C)c1=O | inconclusive: 20 µM [inhibitor, full curve] | – |
| NC(=O)NCCc1ccccc1 | – | inactive: -13.5% |
| CCN1CCN(c2ccc(S(=O)(=O)N3CCCCC3)cc2NC(=O)c2cc3ccccc3o2)CC1 | inconclusive: 63.1 µM [inhibitor, partial curve, poor fit] | – |
| Cc1ccccc1NC(=O)c1sc2nc3c(cc2c1N)CN(Cc1ccccc1)CC3 | – | inactive: -0.337% |
| CCn1c(=S)sc2c(=O)n(CC(=O)NC(C)CCc3ccccc3)c(C)nc21 (stereo not given) | inconclusive: 17.8 µM [inhibitor, partial curve] | – |
| COC(=O)[C@@]1(Cc2ccccc2)[C@H]2C(=O)N(Cc3ccccc3)C(=O)[C@H]2[C@H]2CN=C(SCC(=O)c3ccccc3)N21 | inconclusive: 70.8 µM [inhibitor, partial curve, poor fit] | – |
| CC(C)(C)C(=O)NCC12C=CC(O1)C1C(=O)N(c3ccccc3)C(=O)C12 (stereo not given) | active: 56.2 µM | – |
| O=C1CSCc2nc3ccccc3n21 | active: 20 µM | – |
| COc1cccc(N2CCN(C(=O)CN3CCSc4ccccc43)CC2)c1 | inconclusive: 50.1 µM [inhibitor, partial curve] | – |
| O=C(COc1ccccc1F)Nc1ccc(S(=O)(=O)NCc2ccco2)cc1 | inconclusive: 79.4 µM [inhibitor, partial curve] | – |
| Cc1ccc2nc(NC(=O)CSc3nccn3Cc3ccc(F)cc3)sc2c1 | inconclusive: 25.1 µM [inhibitor, full curve] | – |
| Cc1cc(-c2nnc3n2N=C(c2ccccc2)CS3)n[nH]1 | inconclusive: 31.6 µM [inhibitor, partial curve] | – |
| COc1ccc(OC)c(C(c2nnnn2Cc2ccccc2)N2CCN(C)CC2)c1 (stereo not given) | inconclusive: 79.4 µM [inhibitor, single point] | – |
| c1ccc(-c2nn3c(Cn4nnc5ccccc54)nnc3s2)cc1 | inconclusive: 89.1 µM [inhibitor, single point] | – |
| O=C(O)CONC(=O)c1cc(OCC(F)(F)F)ccc1OCC(F)(F)F | inconclusive: 63.1 µM [inhibitor, partial curve] | – |
| COC(=O)c1ccccc1NC(=O)CSc1nc(C)c(Cl)c(C)c1C#N | inconclusive: 89.1 µM [inhibitor, single point] | – |
| NS(=O)(=O)c1ccc(CCNC(=O)CNCCc2ccccc2)cc1 | active: 25.1 µM | – |
| C=CCn1c(SCC(=O)c2cccs2)nnc1-c1cccc(OC)c1 | active: 89.1 µM | – |
| CC(NC(=O)c1cccs1)c1n[nH]c(=S)n1C (stereo not given) | active: 8.91 µM | – |
| N#CC(c1ccccc1)c1ccc2c(C(F)(F)F)cc(C(F)(F)F)nc2n1 (stereo not given) | active: 44.7 µM | – |

| SMILES | Potency | activity change, negative = inhibition |
| --- | --- | --- |
| O=C(c1ccncc1)N1CCN(C(=O)c2cccc3ccccc23)CC1 | – | inactive: -10.8% |
| O=C(Nc1ccc(Cl)c(S(=O)(=O)N2CCCCC2)c1)c1ccncc1 | – | inactive: -12.4% |
| CC(C)Oc1ccc(C(=O)Nc2ccc(N3CCCC3)cc2)cc1 | inconclusive: 50.1 µM [inhibitor, partial curve] | – |
| COc1cc(N2CCCC2)c(OC)cc1/C=C(/C#N)c1ccc(F)cc1 | active: 31.6 µM | – |
| CCOC(=O)C1CCCN(Cc2ccc(OCc3ccccc3)c(OC)c2)C1 (stereo not given) | inconclusive: 89.1 µM [inhibitor, single point] | – |
| Cc1cccc(-c2nc(CN3CCCC(C(=O)NCCc4ccc(Cl)cc4)C3)c(C)o2)c1 (stereo not given) | inconclusive: 50.1 µM [inhibitor, partial curve] | – |
| Cc1cc(C)n2cc(CSc3ncccc3C(=O)O)nc2n1 | inconclusive: 20 µM [inhibitor, full curve, poor fit] | – |
| O=C(CCn1c(=O)c2sccc2n(Cc2ccc(F)cc2Cl)c1=O)NCc1ccc2c(c1)OCO2 | – | inactive: 3.07% |
| COc1ccccc1/C=N/N1CCN(c2ccc(Cl)cc2)CC1 | active: 39.8 µM | – |
| COc1ccc(S(=O)(=O)NCCc2nnc3ccc(SCC(=O)Nc4nc(C)cs4)nn23)cc1 | – | inactive: 1.41% |
| Cc1ccc(NC(=O)CSc2nc3ccccc3c(=O)n2CCCN2CCCCC2)cc1Cl | inconclusive: 112 µM [inhibitor, partial curve, poor fit] | – |
| O=C(COc1ccc2c3c(c(=O)oc2c1)CCC3)N1CCCCC1 | – | inactive: -11.9% |
| O=C(CNC(=O)c1nc[nH]c1C(=O)NCC(=O)OCc1ccccc1)OCc1ccccc1 | inconclusive: 56.2 µM [inhibitor, partial curve, poor fit] | – |
| COc1ccc(S(=O)(=O)Cc2ccc(C(=O)O)o2)cc1 | – | inactive: 3.01% |
| OCCN1CCN(C2Cc3cc(Cl)ccc3Sc3ccc(Cl)cc32)CC1 (stereo not given) (tested in a mixture with another compound) | inconclusive: 39.8 µM [inhibitor, partial curve] | – |
| CC(C)CN(C(=O)COC(=O)c1cc2ccccc2cc1O)c1c(N)n(Cc2ccccc2)c(=O)[nH]c1=O | – | inactive: -24.1% |
| O=C(c1cc2c(s1)CCCC2)N1CCN(C(=O)C2CCCO2)CC1 (stereo not given) | – | inactive: -5.3% |
| Cc1ccc(S(=O)(=O)N2CCN(C(=O)c3ccc(N4CCCC4)c([N+](=O)[O-])c3)CC2)cc1 | inconclusive: 22.4 µM [inhibitor, full curve, poor fit] | – |
| CC(C(=O)C12CC3CC(CC(C3)C1)C2)N1CCOCC1 (stereo not given) | inconclusive: 22.4 µM [inhibitor, full curve, poor fit] | – |
| CCn1c(-c2cccc(Br)c2)n[nH]c1=S | active: 7.94 µM | – |
| COc1ccccc1-c1nc(-c2ccccc2)[nH]c(=O)c1C#N | inconclusive: 89.1 µM [inhibitor, single point] | – |
| Cc1ccc(Nc2sc(C(=O)c3ccccc3)c(N)c2C(N)=O)cc1 | inconclusive: 79.4 µM [inhibitor, single point] | – |
